# Measured values taken from paper PMC4336329 (PLoS ONE, 2015).
# Out of some 310,000 compounds screened, about 2,200 (0.71%) showed an effect of 50% or more. Effects have a minus sign here. The list shows a part of the results.
# Biological target: human ether-à-go-go-related gene (hERG) potassium channel (human, UniProt Q12809)
# Experiment: primary screen, population patch clamp on CHO cells stably expressing hERG
# Sequence of human ether-à-go-go-related gene (hERG) potassium channel (Q12809 whole entry, looked up): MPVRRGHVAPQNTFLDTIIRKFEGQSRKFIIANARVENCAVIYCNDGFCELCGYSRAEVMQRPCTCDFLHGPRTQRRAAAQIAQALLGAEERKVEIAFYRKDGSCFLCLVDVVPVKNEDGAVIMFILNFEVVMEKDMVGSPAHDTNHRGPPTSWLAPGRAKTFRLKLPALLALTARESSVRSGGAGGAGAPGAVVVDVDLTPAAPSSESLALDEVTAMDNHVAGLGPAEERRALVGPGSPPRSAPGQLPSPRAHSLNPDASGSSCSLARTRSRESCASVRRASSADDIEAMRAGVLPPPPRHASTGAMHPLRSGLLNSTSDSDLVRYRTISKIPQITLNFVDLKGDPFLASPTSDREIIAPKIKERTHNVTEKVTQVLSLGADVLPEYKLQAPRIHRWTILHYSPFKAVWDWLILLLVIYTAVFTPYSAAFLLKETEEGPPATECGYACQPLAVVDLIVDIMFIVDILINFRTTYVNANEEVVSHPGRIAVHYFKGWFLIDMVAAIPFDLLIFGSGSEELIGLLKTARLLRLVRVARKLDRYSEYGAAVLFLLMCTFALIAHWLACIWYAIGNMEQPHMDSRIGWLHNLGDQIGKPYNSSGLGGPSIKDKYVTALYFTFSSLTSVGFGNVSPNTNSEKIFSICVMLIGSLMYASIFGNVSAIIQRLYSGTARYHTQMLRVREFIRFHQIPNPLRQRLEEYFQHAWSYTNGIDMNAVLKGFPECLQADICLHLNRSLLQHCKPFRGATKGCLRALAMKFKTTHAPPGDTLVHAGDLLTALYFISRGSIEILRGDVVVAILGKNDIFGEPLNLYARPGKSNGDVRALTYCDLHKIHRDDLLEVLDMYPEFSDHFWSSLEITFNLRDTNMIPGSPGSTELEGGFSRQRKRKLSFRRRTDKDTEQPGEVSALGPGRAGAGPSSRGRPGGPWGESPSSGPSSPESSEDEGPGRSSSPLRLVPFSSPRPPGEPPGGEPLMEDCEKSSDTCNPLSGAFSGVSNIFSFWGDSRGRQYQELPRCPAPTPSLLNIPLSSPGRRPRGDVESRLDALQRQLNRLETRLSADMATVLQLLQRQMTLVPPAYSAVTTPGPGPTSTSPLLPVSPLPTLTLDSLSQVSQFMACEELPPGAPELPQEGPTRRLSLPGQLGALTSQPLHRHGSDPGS
row,Compound,"hERG current change (%, negative = inhibition) at 1uM [%]"
1,O=C(c1cnn(C(=O)COc2ccccc2F)c1)c1cc(F)ccc1O,7.78
2,COc1cc(CCC(=O)OCC(=O)NC2CCCC(C)C2C)cc(OC)c1OC (stereo not shown),8.81
3,COC(=O)Cc1c(C)nc2nc(NCc3ccc(Cl)cc3)[nH]n2c1=O,8.13
4,O=C1NC(=O)N(c2ccc(F)cc2)C(=O)/C1=C/c1ccsc1,7.5
5,O=[N+]([O-])c1ccc(OCC(O)CN(CCO)CCO)cc1 (stereo not shown),-16.9
6,Cc1ccc(Cn2nnc3c(=O)[nH]c(C4CCN(S(=O)(=O)c5ccccc5F)CC4)nc32)cc1,3.52
7,COc1ccccc1CNC(=O)COC(=O)c1ccc(C)c(S(=O)(=O)N2CCCCC2)c1,-8.92
8,Cc1ccc2nc(N3CCOCC3)c(C=O)cc2c1,3.96
9,CCCCSCCCNC(=O)C1CCC(CNS(=O)(=O)c2ccccc2)CC1 (stereo not shown),7.88
10,Br.O=[N+]([O-])c1ccc(CSC2=NCCN2)cc1,8.87
11,CC(=O)Nc1ccc(N2CCN(C(C)=O)CC2)cc1,17.3
12,CC[C@H](C)[C@@H](NC(=O)O[C@@H]1C(=O)c2cc(OC)ccc2O[C@H]1c1ccc(OC)c(Br)c1)C(=O)OC,0.727
13,COc1ccc(C(C)=O)c2c1OCCO2,8.77
14,COc1ccc(CCNC(=O)c2c(C)nc3ccccn23)cc1,4.94
15,CCP(=O)(c1cccc([N+](=O)[O-])c1)c1cccc([N+](=O)[O-])c1,10.4
16,CCOC(=O)C1=C(C)N=c2s/c(=C/c3cccc([N+](=O)[O-])c3O)c(=O)n2C1c1ccccc1 (stereo not shown),1.62
17,Cc1cccc(-n2c(N)c(C(=O)NCCN3CCOCC3)c3nc4ccccc4nc32)c1,-20.9
18,CCCCc1c(C)nc2ccccc2c1SCCC#N,-4.65
19,CCS(=O)CC(=O)Nc1c(-c2ccccc2)oc2ccccc2c1=O (stereo not shown),11.6
20,O=C(NCc1ccc2c(c1)OCO2)Nc1cccc(Cl)c1,8.71
21,O=C1CN(c2nc(-c3cccs3)nc3sc4c(c23)CCCC4)CCN1,7.17
22,COc1ccccc1S(=O)(=O)Nc1cccc(-c2nnc3n2CCCCC3)c1,14.8
23,Cc1cccc(C)c1NC(=O)CCc1nnc2ccc(N3CCCC3)nn12,10.1
24,O=C(Cn1ncc(N2CCCC2)c(Cl)c1=O)c1ccc(Cl)cc1,5.94
25,O=C(CSc1nnc(COc2ccccc2)n1-c1ccccc1)c1cccs1,11.5
26,Cc1cc(C)cc(N2C(=O)NC(=O)/C(=C\c3cccn3-c3ccc(Cl)cc3)C2=O)c1,12
27,CCc1ccc(OCCNC(=O)c2ccc(S(=O)(=O)N(C)C)cc2)cc1,-10.4
28,Cc1ccc(S(=O)(=O)N2CCOCC2)cc1C(=O)OCC(=O)Nc1ccc2[nH]c(=O)[nH]c2c1,2.59

row,Compound,"hERG current change (%, negative = inhibition) at 1uM [%]"
1,CC(C)(C)n1ncc2c(=O)n(CC(=O)N3CCCC3)cnc21,14.8
2,COC(=O)Cc1cc(=O)[nH]c(/N=C(\N)Nc2ccccc2)n1,9.34
3,O=C(NCc1ccc2c(c1)OCO2)C1CC(=O)N(C2CCCCCCC2)C1 (stereo not shown),-1.72
4,COc1ccc(-c2nnc3n(CCc4ccccc4)c(=O)c4ccccc4n23)c(OC)c1,6.94
5,COc1cccc(CNC(=O)CCNS(=O)(=O)c2cccc3nsnc23)c1,5.65
6,COc1ccc(NCC(O)Cn2cnc3c2c(=O)n(C)c(=O)n3C)cc1 (stereo not shown),13
7,CCCCCCCOC(=O)c1ccc(OC(=O)c2cccnc2)cc1,12.1
8,CC1=CC(=O)OC1Cc1ccncc1 (stereo not shown),15.3
9,CCC(C)c1ccc(C(CC)NC(=O)C2CCCO2)cc1 (stereo not shown),17.4
10,CCc1nnc(NC(=O)CCN(c2cc(C)cc(C)c2)S(=O)(=O)c2ccc(Cl)cc2)s1,15
11,Cc1ccc(CC(=O)N/N=C/c2ccc3c(c2)OCO3)cc1,2.72
12,O=C(NC1CCCCC1)C(c1ccccc1)N(C(=O)c1csnn1)C1CCCC1 (stereo not shown),8.77
13,Fc1ccccc1N1CCN(Cc2c(F)cccc2F)CC1,14.1
14,CC1(C)Cc2c(C#N)c(N3CCNCC3)nc(-c3ccco3)c2CS1,7.63
15,O=S(=O)(Nc1cccc(Cl)c1)c1ccc(-n2cccn2)cc1,7.36
16,O=C(NNS(=O)(=O)c1ccc(F)cc1)c1ccc(O)cc1,14.5
17,CCOC(=O)[C@@H]1[C@H]2COc3cc(OC)ccc3[C@@H]2N2C(=O)N(c3ccc(C(F)(F)F)cc3)C(=O)[C@]12C,14.8
18,COCCOC(=O)C1=C(C)NC(=O)NC1/C=C/c1ccccc1 (stereo not shown),11
19,Cc1nn(-c2ccc(F)cc2)c(Cl)c1/C=C1\C(=O)Nc2ccccc21,6.42
20,COc1ccc(NC(=O)CN(C)CC(=O)Nc2cccc(F)c2)cc1Cl,7.33
21,COc1ccc(N2C(=O)CCC(C(=O)N3CCN(c4ccccn4)CC3)C2c2ccc(F)cc2)cc1 (stereo not shown),-21.3
22,O=C(OC(C(=O)NCc1cccs1)c1ccccc1Cl)c1ccco1 (stereo not shown),9.49
23,Cc1nnc(NC(=O)c2ccc3c(c2)OCO3)s1,13.4
24,CCn1c(N)c(C(=O)N2CCOCC2)sc1=S,13.3
25,COc1ccc(CNC(=O)C2CCCN2S(=O)(=O)c2ccc(S(=O)(=O)N(C)C)cc2)cc1 (stereo not shown),5.21
26,Cc1cccc(C)c1OCC(=O)NCc1ccccc1,11.7
27,COc1cc(C(=O)NCC(=O)N/N=C/c2ccc(-c3cccc([N+](=O)[O-])c3)o2)cc(OC)c1OC,6.2
